PubChem BioAssay AID720709 (National Center for Advancing Translational Sciences (NCATS), 2013)
The whole screen tested about 360,000 compounds, of which about 520 (0.14%) were called active. Inconclusive means that the source gave no clear call. Such entries were picked first, then a sample of the others. Calls come from the whole dose curve; as a rule, active = well fitted inhibition curve with a large enough effect; inconclusive = small, poorly fitted or top-dose-only effect; inactive = no such curve, though single readings can be large or run the other way. Potencies of inconclusive entries are doubtful fits and often do not repeat.

molecular target: Rap guanine nucleotide exchange factor 3 (Homo sapiens) (UniProt O95398); assay: qHTS for Antagonist of cAMP-regulated guanine nucleotide exchange factor 3 (EPAC1): primary screen; conditions: EPAC1 GEF assay, Rap1b-BODIPY-GDP exchange fluorescence; activity change, negative = inhibition: at 115 µM (top of the series); note: nearly all actives have a fitted effect of over 50% in size;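 for activity change, negative = inhibition: plate controls were vehicle for no effect and positive control for full effect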
Potency is the fitted concentration of half-maximal effect; tags give direction and shape of the fitted curve.

UniProt O95398, sequence (O95398 whole entry, looked up): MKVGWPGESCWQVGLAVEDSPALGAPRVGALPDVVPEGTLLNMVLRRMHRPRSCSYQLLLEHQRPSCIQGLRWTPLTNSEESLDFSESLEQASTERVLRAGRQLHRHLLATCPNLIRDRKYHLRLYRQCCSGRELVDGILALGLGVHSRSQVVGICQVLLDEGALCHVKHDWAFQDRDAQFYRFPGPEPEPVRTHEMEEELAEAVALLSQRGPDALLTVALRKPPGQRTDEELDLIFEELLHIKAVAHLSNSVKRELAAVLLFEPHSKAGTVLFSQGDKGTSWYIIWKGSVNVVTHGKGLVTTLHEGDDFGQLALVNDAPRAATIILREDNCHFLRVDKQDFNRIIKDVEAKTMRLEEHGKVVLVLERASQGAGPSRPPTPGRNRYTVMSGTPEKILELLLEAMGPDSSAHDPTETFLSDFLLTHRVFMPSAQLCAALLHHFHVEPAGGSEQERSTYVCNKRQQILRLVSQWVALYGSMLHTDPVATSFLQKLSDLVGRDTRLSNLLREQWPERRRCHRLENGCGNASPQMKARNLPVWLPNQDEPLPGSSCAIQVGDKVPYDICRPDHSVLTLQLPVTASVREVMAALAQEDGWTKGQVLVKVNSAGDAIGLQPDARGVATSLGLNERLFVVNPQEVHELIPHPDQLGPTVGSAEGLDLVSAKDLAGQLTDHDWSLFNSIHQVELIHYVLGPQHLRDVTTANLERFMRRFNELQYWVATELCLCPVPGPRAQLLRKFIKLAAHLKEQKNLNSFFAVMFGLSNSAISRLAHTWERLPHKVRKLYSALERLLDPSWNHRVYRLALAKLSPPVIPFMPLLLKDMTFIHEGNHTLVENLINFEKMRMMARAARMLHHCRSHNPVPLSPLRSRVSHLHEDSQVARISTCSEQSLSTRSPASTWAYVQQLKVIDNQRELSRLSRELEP

Potency, inconclusive:
O=S(=O)(c1ccccc1Cl)N1CCCC(c2nc(-c3cccnc3)no2)C1 (configuration not stated) 100 µM [inhibitor, single point]
O=C/C=C/c1c(-c2ccccc2)cc2oc3ccccc3cc1-2 50.1 µM [inhibitor, partial curve]
CC1CCN(S(=O)(=O)c2ccc(NC(=O)CN3C(=O)NC(C)(c4ccccc4)C3=O)cc2)CC1 (configuration not stated) 70.8 µM [inhibitor, partial curve]
O=C(COC(=O)c1ccc(S(=O)(=O)N2CCCCC2)cc1)Nc1ccccc1 3.16 µM [inhibitor, full curve, poor fit]
COc1ccc(NC(=O)c2ccc(Oc3ncccn3)cc2)cc1 89.1 µM [inhibitor, single point]
COc1ccccc1NS(=O)(=O)c1cc(NC(=O)c2sccc2C)ccc1N1CCCC1 89.1 µM [inhibitor, single point]
COc1ccccc1NC(=O)c1cccc(N2C(=O)C3C4C=CC(C4)C3C2=O)c1 (configuration not stated) 79.4 µM [inhibitor, single point]
C=C1c2ccccc2NC(=S)N1Cc1ccc2c(c1)OCO2 100 µM [inhibitor, single point]
N#C/C(=C(/O)c1ccc(Cl)c([N+](=O)[O-])c1)c1nc2ccccc2[nH]1 100 µM [inhibitor, single point]
CSc1nsc(/C=C/Nc2ccc(F)cc2F)c1C#N 35.5 µM [inhibitor, full curve, poor fit]
O=c1c2ccccc2nc2n1CCC2 25.1 µM [inhibitor, full curve, poor fit]
COc1cc(CN2CCN(C(=O)CC(C)C)CC2)c([N+](=O)[O-])cc1OC 89.1 µM [inhibitor, single point]
CCOC(=O)c1cnc(-n2nc(C)cc2C)nc1Oc1ccc(C(=O)OC)cc1 44.7 µM [inhibitor, partial curve, poor fit]
COc1ccc(Cc2nnc(SCC(=O)Nc3ccc(C)c(Cl)c3)[nH]c2=O)cc1 79.4 µM [inhibitor, single point]
COc1ccc(-n2c(C)nnc2SCC(=O)NC2CC2)cc1 20 µM [inhibitor, partial curve]
CN(Cc1ccccc1)S(=O)(=O)c1ccc(NC(=S)NC(=O)C2CCCCC2)cc1 12.6 µM [inhibitor, full curve]

Activity change, negative = inhibition, inactive:
CC(C)(CNC(=O)c1ccc(Br)o1)N1CCOCC1 21.3%
